# PubChem BioAssay AID485294 (National Center for Advancing Translational Sciences (NCATS), 2010)
# In all, about 370,000 compounds went through this assay and about 150 (0.041%) were called active. Inconclusive results, whose numbers are uncertain, are shown with a selection of clear calls. Calls follow the shape of the dose curve; as a rule, active = well fitted inhibition curve with a large enough effect; inconclusive = small, poorly fitted or top-dose-only effect; inactive = flat fitted curve, though single readings scatter. Potencies of inconclusive entries are left out as doubtful fits.
# Target: Beta-lactamase (Escherichia coli (strain K12)) (UniProt P00811)
# Assay: qHTS Inhibitors of AmpC Beta-Lactamase (assay with detergent); also: nearly all actives have a fitted effect of over 25% in size
# Details: AmpC hydrolysis of nitrocefin, absorbance 480 nm, 0.01% Triton; series mostly up to 114 µM
# In short: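 20 mM phosphate pH 7.0 + 0.01% (detergent screen) or 0.0001% Triton X-100; 5.3 nM AmpC reagent; cpd preinc 15 min RT; nitrocefin (800 uM stock) to start; A480 q20 s × 4 min; Activity was normalised to no-enzyme and no-compound control wells.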
# Potency is read from the fitted curve at half-maximal effect; tags tell the direction and shape of the fitted curve.
# UniProt P00811, sequence (P00811 whole entry, looked up): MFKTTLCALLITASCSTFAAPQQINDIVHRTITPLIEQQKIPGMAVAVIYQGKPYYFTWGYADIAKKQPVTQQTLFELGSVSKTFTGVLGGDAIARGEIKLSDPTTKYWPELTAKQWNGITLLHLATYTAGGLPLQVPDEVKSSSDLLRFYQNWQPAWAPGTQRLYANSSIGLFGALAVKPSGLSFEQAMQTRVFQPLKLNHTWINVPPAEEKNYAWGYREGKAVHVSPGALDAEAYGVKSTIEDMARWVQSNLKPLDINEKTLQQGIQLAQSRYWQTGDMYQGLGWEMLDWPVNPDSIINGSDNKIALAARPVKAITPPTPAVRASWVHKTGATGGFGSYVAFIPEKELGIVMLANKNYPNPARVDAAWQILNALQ
row,Compound,Potency
1,CC(=O)c1c(C(C)=O)c(C)n(NC(=O)c2ccc(Cl)cc2)c1C,"inconclusive [inhibitor, full curve, poor fit]"
2,NC(=O)c1cc([N+](=O)[O-])ccc1NCc1ccc(F)cc1,inactive
3,Cc1ccc(/C=C2\CC(C)CC3=C2NC(=S)NC3c2ccc(C)cc2)cc1 (stereo unspecified),inactive
4,COc1ccc(/C=N/Nc2cc(C)nc3ccccc23)cc1,inactive
5,NC(=O)c1ccc[n+](CC(=O)c2ccc(F)cc2)c1,"inconclusive [inhibitor, single point]"
6,CCc1ccc(OCC(=O)N(Cc2ccc(Cl)cc2)C2CCS(=O)(=O)C2)cc1 (stereo unspecified),"inconclusive [inhibitor, single point]"
7,COc1ccc([N+](=O)[O-])cc1NCc1cccc([N+](=O)[O-])c1,inactive
8,CSc1nc2n(n1)C(C)C1=C(CCCC1=O)N2 (stereo unspecified),inactive
9,COc1cc([N+](=O)[O-])ccc1NC(=O)CN1CCN(C(=O)c2ccco2)CC1,inactive
10,O=C(COC(=O)c1ccc(C(F)(F)F)cc1)NC(=O)NC1CCCC1,"inconclusive [inhibitor, single point]"
11,O=C(CN1CCN(c2ccc(Cl)cc2)CC1)NCc1ccccc1,inactive
12,Fc1ccc2c(c1)nnn2C1CCN(Cc2nnnn2C2CCCCC2)CC1,inactive
13,O=C1CC(c2ccccc2)Cc2[nH]c(=O)c(C(=O)Nc3cccc(F)c3)cc21 (stereo unspecified),inactive
14,CCOc1ccc(N2C(=O)Cc3ccccc3C2=O)cc1,inactive
15,COc1cc(OC)cc(-n2nnnc2SCC(=O)N2CCCC2)c1,"inconclusive [inhibitor, full curve, poor fit]"
16,Cn1ccnc1SC(=O)N1c2ccccc2Sc2ccccc21,"inconclusive [inhibitor, partial curve]"
17,O=C(N[C@H](Cc1ccc(Cl)cc1)C(=O)O)OCC1c2ccccc2-c2ccccc21,"inconclusive [inhibitor, partial curve, poor fit]"
18,CC(=O)c1cccc(Nc2cc(C)nc3c(C)cccc23)c1,inactive
19,O=C(c1ccco1)N1CCN(c2nc3ccsc3c(=O)s2)CC1,"inconclusive [inhibitor, full curve, poor fit]"
20,COc1ccc(OCCCCn2c(CO)nc3ccccc32)cc1,"inconclusive [inhibitor, full curve, poor fit]"
21,COc1ccc(C2c3c(oc4ccc(F)cc4c3=O)C(=O)N2Cc2ccc3c(c2)OCO3)cc1 (stereo unspecified),inactive
22,COC(=O)c1cc(-c2ccc(Br)cc2)c2c(=O)n(C)c(=O)n(C)c2n1,inactive
23,O=C(Nc1ccc(Cl)c(Cl)c1)Nc1nc(-c2ccccc2)cs1,"inconclusive [inhibitor, full curve, poor fit]"

row,Compound,Potency
1,C=CCOC(=O)C1=C(C)NC(=O)NC1c1ccc(O)cc1 (stereo unspecified),"inconclusive [inhibitor, single point]"
2,N#Cc1nc(COc2ccccc2F)oc1NCCc1ccccc1,"inconclusive [inhibitor, full curve, poor fit]"
3,COc1ccc(C(=O)COC(=O)Cn2cnc3c2c(=O)n(C)c(=O)n3C)c(OC)c1,"inconclusive [inhibitor, full curve, poor fit]"
4,O=C(NC1CCCC1)C1CC(c2ccc(F)cc2)=NO1 (stereo unspecified),inactive
5,Cc1noc(/C=C/c2ccco2)c1S(=O)(=O)N1CCC(C(=O)N2CCc3ccccc32)CC1,"inconclusive [inhibitor, partial curve, poor fit]"
6,COc1cccc(-c2nnc(SCC(=O)Nc3ccc(OC)c(OC)c3)n2N)c1,"inconclusive [inhibitor, full curve, poor fit]"
7,Cc1csc(Nc2nc(N)c(C(=O)Nc3ccccc3)o2)n1,inactive
8,COc1ccc(C(=O)n2cnnc2N)cc1,"inconclusive [inhibitor, single point]"
9,N#Cc1c(NCCN)nc(NCc2ccccc2)c2c1CCN(Cc1ccccc1)C2,"inconclusive [inhibitor, full curve]"
10,CCOC(=O)Cn1cnc2c(nnn2-c2ccc(F)cc2)c1=O,"inconclusive [inhibitor, full curve, poor fit]"
11,CC(C)(C)c1ccc(C(=O)Nc2cccc(C(=O)N3CCOCC3)c2)cc1,"inconclusive [inhibitor, full curve]"
12,COc1ccc(NC(=O)CCNS(=O)(=O)c2cccc3nsnc23)cc1,"inconclusive [inhibitor, full curve, poor fit]"
13,C=CCOc1ccc(CN(C)CC(=O)Nc2ccc3c(c2)CCC3)cc1,"inconclusive [inhibitor, full curve, poor fit]"
14,CCC(CC)c1nc(C(N)=O)c2[nH]c(=O)n(-c3ccc(OC)c(OC)c3)c2n1,"inconclusive [inhibitor, full curve, poor fit]"
15,COc1cc(NC(=O)c2ccco2)c(C(=O)O)cc1OC,inactive
16,CC(C)[C@H](NC(=O)c1c(F)cccc1F)C(=O)OCC(=O)NC(=O)NC1CCCC1,"inconclusive [inhibitor, single point]"
17,CCc1ccc(NC(=O)c2onc(C)c2Cl)cc1,"inconclusive [inhibitor, full curve, poor fit]"
18,CCN1CCN(C(c2ccccc2)c2nnnn2Cc2ccccc2)CC1 (stereo unspecified),inactive
19,Cc1cc(C)n2nc(SCc3ncc(-c4ccccc4)o3)nc2n1,"inconclusive [inhibitor, full curve, poor fit]"
20,O=C(Nc1ccc(S(=O)(=O)N2CCOCC2)cc1)c1ccccc1F,"inconclusive [inhibitor, partial curve, poor fit]"
21,Cc1cccc(NC(=O)C2CCN(c3nnc(-n4c(C)ccc4C)s3)CC2)c1C,inactive
22,COc1ccc(Cl)cc1NC(=S)N1CC(C)OC(C)C1 (stereo unspecified),"inconclusive [inhibitor, full curve]"
23,CCc1cc2c(=O)n(-c3ccc(C)cc3)cnc2s1,inactive
